# Out of some 360,000 compounds screened, about 17,000 (4.7%) were called active. The inconclusive results got no clear call from the source; some entries with a clear call stand among them for comparison. Rule as the data show it: active = activity change below about -50%; inconclusive = mostly about -30% to -49%; inactive = weaker than that.
# Experiment: qHTS for Inhibitors of Inflammasome Signaling: IL-1-beta AlphaLISA Primary Screen
# Conditions: THP-1 LPS/ATP IL-1B secretion, 16 h; at 57.5 µM, active compounds read low
# Method in brief: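 THP-1 cells pretreated 1 hr with compounds (up to 57.5 uM final), then stimulated with LPS (250 ng/mL final) plus ATP (1.25 mM final); secreted IL-1B measured by AlphaLISA after 16 hr, decreased signal indicating inhibition.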
# % is scaled to controls: 0 for no effect and ±100 for the full control effect.
row,SMILES,activity change
1,CCO[C@@H]1OC(C(=O)N2CCN(Cc3ccccc3)CC2)=C[C@H](c2ccc(C(F)(F)F)cc2)[C@H]1CCCO,active: -87.6%
2,COc1ccc(CCNC(=O)C23CCC(C)(C(=O)O2)C3(C)C)cc1OC (stereo unspecified),inconclusive: -32.1%
3,Cc1ccc(NCC(=O)N/N=C/c2cccc(Oc3ccccc3)c2)cc1,active: -77.1%
4,CCOc1ccc(CN2CCCC(CO)(Cc3ccccc3F)C2)cc1 (stereo unspecified),active: -55.7%
5,O=C(N/N=C/c1ccc(Cl)c([N+](=O)[O-])c1)c1ccc2c(c1)OCCO2,inactive: -15.5%
6,Cc1ccc(-c2csc(N/N=C/c3ccco3)n2)cc1,inactive: -5.81%
7,COc1ccc(-c2cc3ccccc3n2CC(O)CN2CCC(C)CC2)cc1 (stereo unspecified),inconclusive: -30.6%
8,N#Cc1cccc(-n2c(-c3ccccc3)nnc2-c2ccccc2)c1C#N,inconclusive: -35.4%
9,CCOc1ccc([C@@H]2CC=C(C(=O)O)[C@H](c3ccc(Cl)cc3)N2S(=O)(=O)c2ccc(C)cc2)cc1,inactive: 43%
10,COc1cccc(-c2cc3nc(C)cc(N4CCN(C(=O)c5ccoc5)CC4)n3n2)c1,inactive: 18.4%
11,O=C(NCCCc1ccccc1)c1ccc(CS(=O)Cc2ccc(Cl)cc2)o1 (stereo unspecified),inactive: 10.2%
12,O=C1NC(Cc2c[nH]c3ccccc23)C(=O)N1Cc1cccc2ccccc12 (stereo unspecified),active: -101%
13,C=CCc1ccccc1OCC(O)CN1CCN(CCN2C(=O)c3cccc4cccc(c34)C2=O)CC1 (stereo unspecified),active: -70.5%
14,O=C(Nc1cc(C(F)(F)F)ccc1Cl)C(Sc1n[nH]c(=O)[nH]c1=O)c1ccccc1 (stereo unspecified),inconclusive: -35.2%
15,Nc1ccccc1SC1CC(=O)N(c2ccc(Cl)c(Cl)c2)C1=O (stereo unspecified),inconclusive: -31.5%
16,Cc1ccc(C(=O)Nc2nc(=O)n(C(=O)C3CC3)s2)cc1,inconclusive: -37.2%
17,Cc1ccccc1N=C1SC(CC(=O)Nc2ccc3ccccc3c2)C(=O)N1Cc1ccccn1 (stereo unspecified),inconclusive: -37.3%
18,Cc1nc2ccccc2n1/N=C/c1cccnc1,inconclusive: -33.8%
19,Cn1c(N2CCN(C(c3ccccc3)c3ccccc3)CC2)nc2ccccc21,active: -84.1%
20,Cc1cc2ncn(/N=C/c3ccc([N+](=O)[O-])o3)c2cc1C,inconclusive: -47.5%
21,CC(C)N1CCc2c(sc(NC(=O)CCc3ccccc3)c2C(N)=O)C1,inconclusive: -33.9%

row,SMILES,activity change
1,CCOc1ccc(N2C(=O)CC(SCC(=O)O)C2=O)cc1 (stereo unspecified),inconclusive: -36.1%
2,CC(C)N(C(=O)COC(=O)c1ccccc1C(=O)c1ccc(Cl)c([N+](=O)[O-])c1)C(C)C,active: -102%
3,Cc1cc(O)c(C(C)C)cc1C1(c2cc(C(C)C)c(O)cc2C)OC(=O)c2ccccc21,active: -99.1%
4,CCOc1cc(C2C(C#N)=C(N)Oc3n[nH]c(C)c32)ccc1OCCN1CCOCC1 (stereo unspecified),inconclusive: -39.6%
5,CC(C)NC(=O)N(C)C[C@H]1Oc2c(NC(=O)Nc3ccc(C(F)(F)F)cc3)cccc2C(=O)N([C@H](C)CO)C[C@@H]1C,inconclusive: -32.2%
6,O=C(NCCc1cccc(C(F)(F)F)c1)C1CCC(=O)N(CCc2cccc(F)c2)C1 (stereo unspecified),inconclusive: -33.3%
7,COc1ccc(CN(CCC(c2ccccc2)C2CCOC(C)(C)C2)C(C)=O)cc1 (stereo unspecified),inconclusive: -43.7%
8,CCOc1ccc(Nc2cc3n(c(=O)n2)CCc2cc(OC)c(OC)cc2-3)cc1,inconclusive: -49.6%
9,Cn1c(CN2CCCCC2)nc2cc(NC(=O)c3ccc(F)cc3)ccc21,inconclusive: -37.3%
10,Cc1ccc(SCCNC(=O)c2ccc([N+](=O)[O-])c(C)c2)cc1,inconclusive: -46.4%
11,O=C(Nc1ccccc1Br)C1CC(=O)N(c2ccc3c4c(cccc24)CC3)C1 (stereo unspecified),inconclusive: -46.2%
12,O=C(NCC1CCN(Cc2ccccc2Cl)CC1)Nc1cccc(Cl)c1,active: -75%
13,N#CC(=C1C=CC(=NO)C(Cl)=C1)c1ccc(Cl)cc1,active: -53.6%
14,CCOc1ccc(CCNC(=O)CCNC(=O)c2ccco2)cc1OCC,inactive: -7.12%
15,C=CCNc1ncnc2c1ncn2[C@H]1CN(Cc2cccs2)C[C@@H](CO)O1,inconclusive: -42.4%
16,FC(F)(F)c1nc2ccccc2n2c(-c3ccc(Cl)cc3)nnc12,inconclusive: -48.4%
17,COc1ccc(C2CC23N=C(c2ccccc2)OC3=O)cc1 (stereo unspecified),inconclusive: -41.5%
18,COc1ccc2cc3cc(C(=O)NCCc4ccc(OC)c(OC)c4)oc3nc2c1,inconclusive: -40.3%
19,NS(=O)(=O)c1ccc(CCNCc2ccccc2OCc2ccc(Cl)cc2)cc1,active: -80.5%
20,CC(C)(C)Nc1nc(NCc2cccnc2)nc(N2CCOCC2)n1,inconclusive: -33.9%

# Reference: PubChem BioAssay AID743279 (National Center for Advancing Translational Sciences (NCATS), 2014)
